# Out of some 310,000 compounds screened, about 14,000 (4.5%) showed an effect of 50% or more. Effects have a minus sign here. Some of the results follow.
# Biological target: human ether-à-go-go-related gene (hERG) potassium channel (human, UniProt Q12809)
# Experiment: primary screen, population patch clamp on CHO cells stably expressing hERG
# 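Note: peak tail current of the secondary pulse compared with the same well before compound.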
# Sequence of human ether-à-go-go-related gene (hERG) potassium channel (Q12809 whole entry, looked up): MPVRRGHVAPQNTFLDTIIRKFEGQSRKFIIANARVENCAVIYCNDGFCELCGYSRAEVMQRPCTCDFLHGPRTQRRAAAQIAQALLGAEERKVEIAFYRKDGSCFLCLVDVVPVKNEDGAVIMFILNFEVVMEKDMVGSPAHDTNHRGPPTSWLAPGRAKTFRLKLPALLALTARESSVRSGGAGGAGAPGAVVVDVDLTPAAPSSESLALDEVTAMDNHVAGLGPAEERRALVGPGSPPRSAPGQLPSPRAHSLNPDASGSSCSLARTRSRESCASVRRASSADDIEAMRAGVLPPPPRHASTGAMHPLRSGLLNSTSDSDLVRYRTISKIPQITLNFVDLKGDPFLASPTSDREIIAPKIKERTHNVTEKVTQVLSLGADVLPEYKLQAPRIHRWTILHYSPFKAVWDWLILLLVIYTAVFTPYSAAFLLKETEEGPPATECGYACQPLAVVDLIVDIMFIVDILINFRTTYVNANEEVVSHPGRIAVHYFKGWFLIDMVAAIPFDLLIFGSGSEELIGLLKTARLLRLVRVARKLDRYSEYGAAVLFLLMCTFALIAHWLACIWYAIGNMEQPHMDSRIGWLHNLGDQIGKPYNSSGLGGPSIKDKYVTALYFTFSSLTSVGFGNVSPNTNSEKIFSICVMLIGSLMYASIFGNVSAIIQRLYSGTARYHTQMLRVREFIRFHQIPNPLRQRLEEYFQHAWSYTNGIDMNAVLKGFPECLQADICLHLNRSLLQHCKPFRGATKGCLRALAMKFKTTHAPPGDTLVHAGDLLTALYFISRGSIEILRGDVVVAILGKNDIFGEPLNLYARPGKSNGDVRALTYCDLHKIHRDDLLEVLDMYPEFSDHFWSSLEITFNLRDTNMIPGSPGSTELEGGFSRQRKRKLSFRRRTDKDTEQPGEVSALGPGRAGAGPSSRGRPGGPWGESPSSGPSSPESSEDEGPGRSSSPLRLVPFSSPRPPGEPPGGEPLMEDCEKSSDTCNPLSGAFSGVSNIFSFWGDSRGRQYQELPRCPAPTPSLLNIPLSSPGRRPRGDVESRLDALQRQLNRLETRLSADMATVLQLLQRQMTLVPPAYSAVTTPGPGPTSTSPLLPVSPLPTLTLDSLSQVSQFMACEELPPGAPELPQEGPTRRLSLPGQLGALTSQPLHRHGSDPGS
row,Compound,"hERG current change (%, negative = inhibition) at 10uM [%]"
1,CCOc1ccc(CN2CCNC(=O)C2CC(=O)NC2CCCCCC2)cc1 (stereo not drawn),-32.2
2,COc1ccc(CCn2c(-c3cc([N+](=O)[O-])cc([N+](=O)[O-])c3)nc3nc4ccccc4nc32)cc1,-9.44
3,COc1ccccc1/C=C/C=N/n1c(-c2ccco2)n[nH]c1=S,19.6
4,Nc1ccccc1-c1nc2ccccc2[nH]1,-21.1
5,Cn1nccc1C(=O)N1CCCC(C(=O)c2ccc(Oc3ccccc3)cc2)C1 (stereo not drawn),-25.5
6,Cc1noc(C)c1CSc1nc2cc(S(=O)(=O)N3CCOCC3)ccc2o1,-19.9
7,COc1ccccc1NC(=O)C1CCOC1=O (stereo not drawn),15.4
8,CC[C@@]12C(=O)N(c3ccccc3)C(=O)N1[C@H](c1cccc(C)c1)[C@@H]1C(=O)N(Cc3ccccc3)C(=O)[C@@H]12,14.7
9,Cc1ccc2nnn(Cc3cccc(C(C)(C)C)c3O)c2c1,8.03
10,O=C(N/N=C1/SCC(=O)N1Cc1ccco1)c1ccccc1F,20.1
11,CC1CCCC(C)N1CCCNC(=O)Cn1ncc2c3ccccc3n(C)c2c1=O (stereo not drawn),-36.9
12,COc1ccccc1CCC(=O)N1CCN(C(=O)c2ccccc2)CC1,3.26
13,O=C(CCCC(=O)N(c1ccc2c(c1)OCCO2)C(C(=O)NC1CCCCC1)c1ccc(F)cc1)Nc1ccccn1 (stereo not drawn),10
14,CC(C)(C)C(=O)Nc1ccc(NC(=O)C(C)(C)C)cc1,-6.63
15,C=CCc1cccc2cc(C(=O)O)c(=O)oc12,-4.02
16,CCN1CCN(c2ccc(S(=O)(=O)N3CCOCC3)cc2NC(=O)C(C)Oc2ccc(Cl)cc2)CC1 (stereo not drawn),-70.9
17,COc1cccc(N=C2SC(CC(=O)Nc3ccccc3)C(=O)N2Cc2ccccn2)c1 (stereo not drawn),-38.6
18,Cc1ccc(Sc2nnc(Cc3ccccc3)c3ccccc23)cc1,19.5
19,Fc1ccccc1-c1nc(NC2CCCC2)c2ccccc2n1,-27.9
20,Cc1nn(-c2ccccc2)c2c1C(c1cccc([N+](=O)[O-])c1)N(c1ccccc1)C(=O)N2 (stereo not drawn),11.1
21,O=C(CCC1CCCCC1)NC1=NCCS1,-3.08

row,Compound,"hERG current change (%, negative = inhibition) at 10uM [%]"
1,Cc1ccc(CNC(=O)c2cc3c(=O)n4ccccc4nc3n(CC3CCCO3)c2=N)cc1 (stereo not drawn),-81.3
2,Cc1cc(-c2nnc(-c3cccc(Cl)c3)o2)no1,-7.16
3,Cc1nn(-c2ccccc2)c(C)c1NC(=O)COC(=O)c1ccc(O)cc1O,-11.7
4,O=[N+]([O-])c1ccc(/C=N/Nc2nc(NCc3ccccc3)nc(N3CCOCC3)n2)cc1,-3.91
5,O=C(CNCC1CCCO1)Nc1ccc([N+](=O)[O-])cc1C(=O)Nc1ccccc1F (stereo not drawn),-39.7
6,N=C1C(c2nc3ccccc3[nH]2)=C(O)CN1NC(=O)c1c[nH]c2ccccc12,17
7,O=C(c1cccs1)N1CCN(C(=O)C(c2ccccc2)c2ccccc2)CC1,-30.6
8,O=C(NCc1ccccc1)C(=O)Nc1nccs1,2.61
9,CC(=O)c1ccc(NC(=O)c2onc(C)c2Cl)cc1,11.8
10,COc1ccc(NC(=O)CSC2=C(C#N)C(c3ccco3)C(C(=O)Nc3nc4ccccc4s3)=C(C)N2)cc1 (stereo not drawn),22.6
11,CCn1ncc(Br)c1C(=O)Nc1ccc(-c2ccno2)cc1,20.5
12,O=C(N/N=C/c1cccc(Oc2ccccc2)c1)c1ccccc1Br,6.92
13,O=C(Cc1c[nH]c2ccccc12)Nc1ccccc1N1CCOCC1,6.09
14,COc1ccc(N2CN=C3SCC(=O)N3C2)cc1,11.5
15,COc1ccc(/C=N/Nc2nc(Nc3ccccc3)nc(N3CCCC3)n2)cc1,12.8
16,CCC(C)C(NC(=O)c1ccccc1NC(=O)c1ccc(C)cc1)C(=O)O (stereo not drawn),4.9
17,Cc1cc(NC(=O)CSCc2nc(-c3cccc(Cl)c3)oc2C)no1,10.3
18,O=C(COc1ccc(S(=O)(=O)NC2CCCCC2)cc1Cl)NCC1CCCO1 (stereo not drawn),-2.36
19,CC(=O)CSc1nnc(-c2ccc(S(=O)(=O)N3CCOCC3)cc2)n1C,17.6
20,C=CCSc1nnc(-c2c[nH]c3ccccc23)n1CCOC,4.36
21,COCCOC(=O)C1=C(C)NC(=S)NC1/C=C/c1ccccc1 (stereo not drawn),4.65

# From paper PMC4336329 (PLoS ONE, 2015)
